Experimental data published in PubChem BioAssay AID1457 (National Center for Advancing Translational Sciences (NCATS), 2008).
In all, about 210,000 compounds went through this assay and about 730 (0.35%) were called active. The inconclusive results got no clear call from the source; some entries with a clear call stand among them for comparison. The call rests on the fitted dose curve; in most records, active means well fitted inhibition curve with a large enough effect; inconclusive means small, poorly fitted or top-dose-only effect; inactive means no such curve, though single readings can be large or run the other way. A potency beside an inconclusive call is a rough fit, not a confirmed value.

Assay: qHTS Assay for Identifying the Cell-Membrane Permeable IMPase Inhibitors: Potentiation with Lithium; further: nearly all actives have a fitted effect of over 50% in size;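 on activity, negative = IMPase inhibition: plate controls were basal vehicle for no effect and high inhibitor control for full effect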
Settings: CHO-M1 cells, IP1 TR-FRET (IP-One), carbachol + lithium; series mostly up to 59.4 µM; activity, negative = IMPase inhibition: at the top concentration
Summary of the method: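 Steps: plate 2000 CHO-M1 cells per well and culture 16–30 h; add compound and lithium; incubate 30 min, 37C; add d2-IP1 tracer and Eu cryptate anti-IP1 antibody in lysis buffer; read after 10 min at room temperature.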
Potency means the concentration at half of the fitted maximal effect.

Compound	activity, negative = IMPase inhibition	Potency
N#C/C(=C\c1ccc(O)c(O)c1)C(=O)NCCCCc1ccccc1	inactive: 32%	
C=CCNc1nc(N)c(C(=C(C#N)C#N)c2ccccc2)s1		inconclusive: 8.91 µM [inhibitor, partial curve]
O=C(CSc1cn(CCNC(=O)c2ccccc2)c2ccccc12)NCc1ccco1	inactive: 8.28% [at 38.3 µM]	
O=C1CCSc2ccc(Cl)cc2N1Cc1cccc(Cl)c1	inactive: 12.1%	
Cc1cc(C)cc(NC(=O)c2cc(=O)c3ccccc3o2)c1		inconclusive: 10 µM [inhibitor, partial curve]
COC(=O)CCC(=O)NC(=S)Nc1sc(C)c(C)c1C(N)=O		inconclusive: 28.2 µM [inhibitor, single point]
Clc1ccc(-c2ccc(C=Nc3ccc(N4CCOCC4)cc3)o2)cc1	inactive: -2.17%	
CCc1cccc(NC(=O)c2ccc(Cn3c(=O)[nH]c4ccsc4c3=O)cc2)c1		inconclusive: 28.2 µM [inhibitor, single point]
Cc1ccc(CC2S/C(=N/c3ccccn3)NC2=O)cc1 (stereo unspecified)		inconclusive: 28.2 µM [inhibitor, single point]
CCOc1ccc(N2C(=O)CNC2=S)cc1	inactive: -1.83%	
CCCC(=O)Nc1cc(-c2nn(C)c(=O)c3ccccc23)ccc1N1CCOCC1	inactive: 13.1% [at 38.3 µM]	
COc1ccccc1/C(O)=C(\C#N)c1nc2ccccc2[nH]1		inconclusive: 28.2 µM [inhibitor, single point]
CCOC(=O)C1CCN(C(=O)c2ccc3c(SCC(=O)O)c4c(nc3c2)CCCC4)CC1		inconclusive: 11.2 µM [inhibitor, single point]
Nc1c(C(=O)NCc2ccccc2)sc2nc(N3CCOCC3)c3c(c12)CCCC3		inconclusive: 11.2 µM [inhibitor, single point]
O=C(O)Cn1c(-c2ccccc2)nc2ccccc21		inconclusive: 0.316 µM [inhibitor, full curve, poor fit]
O=P(CO)(Cc1ccccc1)Cc1ccccc1	inactive: -10.3% [at 38.3 µM]	
CC(C)(C)CC(C)(C)NC(=S)Nc1ccc2nc(-c3ccccn3)c(-c3ccccn3)nc2c1		inconclusive: 12.6 µM [inhibitor, partial curve]
Cc1ccc(C)c2c(SC(C)C(=O)NCc3ccco3)nc(-c3ccccc3)nc12 (stereo unspecified)		inconclusive: 28.2 µM [inhibitor, single point]
Cc1cc(C)n(-c2nc(C)nc3c2cnn3-c2ccccc2)n1		inconclusive: 12.6 µM [inhibitor, single point]
CC(=O)c1sc(NC(=O)COc2ccc(C(C)C)c(C)c2)nc1C		active: 11.2 µM
COC(=O)C1=C(NC(=O)c2ccc(C)c(C)c2)CCS1		inconclusive: 28.2 µM [inhibitor, single point]
